We go through 42 compounds from ChEMBL document CHEMBL4888484, “Replenishing the malaria drug discovery pipeline: Screening and hit evaluation of the MMV Hit Generation Library 1 (HGL1) against asexual blood stage Plasmodium falciparum ,using a nano luciferase reporter read-out” (2022).

Structures are written as SMILES. Hit rate of the full screen: of about 150,000 compounds, about 540 (0.36%) showed an effect of 50% or more. The list shows a part of the results.

This test concerns Plasmodium falciparum. In words: Primary screen in NF54 nanoGlo assay, in single point, at 2uM, 72h; a lower Z score goes with more inhibition. The test is classed as functional, Erythrocyte. As to conditions: timepoint 72 hour.
In the case of `O=C(CCC1CCN(Cc2ccc3c(c2)OCCO3)CC1)NCc1cccc(Cl)c1`, the % Inhibition (commonly the change of the read-out against control, counted positive when it falls) was -9% and the Z score is 1.08.

For `CC[C@@H](c1nc(-c2csc(C)n2)nn1C1CCN(C)CC1)n1cccn1`, the “% Inhibition” value was found to be 3% and the Z score is -0.39.

`COc1ccc(CN2Cc3cc(NS(=O)(=O)c4ccc(Cl)cc4)ccc3O[C@@H](C)C2=O)c(OC)c1`: the “% Inhibition” value is given as -7% and the Z score came to 0.83.

As to `Cc1cccc(NC(=O)c2cc3c(ccc4ccccc43)o2)c1C`, the “% Inhibition” value is recorded as 2% and the Z score is recorded as -0.31.

For the compound `Cc1nonc1CN(C)C(=O)C[C@@H](c1cccc(O)c1)c1ccccc1Cl`, the “% Inhibition” value is -8% and the Z score amounted to 0.66.

In the case of `Clc1snnc1CN1CC(OCCCOc2ccccc2)C1`, the “% Inhibition” value is -8% and the Z score stood at 1.49.

With `COc1ccc([C@@H](CC(N)=O)c2c(O)n[nH]c2Cc2ccc3c(c2)CCO3)cc1`, the “% Inhibition” value came to 0% and the Z score stood at 0.08.

As for `Cc1cc(=O)c(-c2noc([C@@]34CCCC[C@@H]3NCC4)n2)c2n1CCC2`, the “% Inhibition” value is recorded as -4% and the Z score came out at 0.75.

In the case of `CC(C)[C@H](CNC(=O)N1CC2(CCOCC2)C1)c1cccnc1`, the “% Inhibition” value was found to be 9% and the Z score was -1.64.

Take `COc1ccccc1C(=O)N1CCN(Cc2sc(C)nc2C)CC1`: the “% Inhibition” value is 3% and the Z score is -0.39.

Turning to `C=CCn1c(C(=O)NCCN2CCCCC2)cc2cc(S(=O)(=O)N(C)C)ccc21`, the “% Inhibition” value was -14% and the Z score stood at 1.51.

Regarding `COc1ccccc1CNC(=O)[C@]1(C)Cn2c(cc3ccccc32)C(=O)N1Cc1ccccc1Cl`, the “% Inhibition” value is given as 1% and the Z score is listed as -0.12.

Turning to `Cc1cccc(NC2CCN(CC(=O)NC(C3CC3)C3CC3)CC2)n1`, the “% Inhibition” value was -8% and the Z score is 1.09.

As to `CCCN1C(=O)c2ccccc2C(C(=O)N2CCN(C(C)=O)CC2)C1c1ccc2c(c1)OCO2` (centres undefined), the “% Inhibition” value is -2% and the Z score came to 0.42.

As for `Cc1nn(-c2ncnc3[nH]cnc23)c2c1[C@H](C(C)(C)C)CC(=O)N2`, the “% Inhibition” value was 1% and the Z score is -0.17.

As to `c1ccc(-n2nc(CC3CC3)cc2NCc2cnc3ccccn23)cc1`, the “% Inhibition” value is recorded as -17% and the Z score is 2.41.

For `CC(=O)N1CCC(C(=O)NCCn2c(C)cnc2-c2ccccc2)CC1`, the “% Inhibition” value is on record as -11% and the Z score was determined as 1.24.

`CC(C)c1nccc(NC[C@]2(c3ccccc3)C[C@H](O)C2)n1`: the “% Inhibition” value turned out to be 8% and the Z score was -1.49.

As to `COC(=O)C(C)(C)[C@H]1CCCN(C(=O)CCNC(=O)c2ccncc2)C1`, the “% Inhibition” value is -10% and the Z score was found to be 1.76.

Consider `CCC1CC(C(=O)N2CCN(Cc3ccccc3)CCC2C)CCO1` (centres undefined), for which the “% Inhibition” value was -15% and the Z score amounted to 2.32.

Consider `C=CCN1C(=O)c2ccccc2N[C@]1(C)CCc1ccccc1`, for which the “% Inhibition” value turned out to be 4% and the Z score is given as -0.7.

In the case of `CNC(=O)[C@@H]1CCCCN1Cc1cccc2nonc12`, the “% Inhibition” value is -17% and the Z score was determined as 3.24.

Turning to `COCCOCC(=O)NCc1ccc(-c2scnc2C)cc1`, the “% Inhibition” value is -14% and the Z score was determined as 1.82.

`CCN1C[C@@H](CNC(=O)N(C)Cc2csc(-c3ccccc3)n2)CC1=O`: the “% Inhibition” value is -16% and the Z score is listed as 2.11.

`Cc1cc(NC(=O)CNc2ccc(-n3cccn3)c(Cl)c2)on1`: the “% Inhibition” value is -6% and the Z score is on record as 1.13.

As to `C[C@H]1CCCN(C(=O)CCn2cnccc2=O)c2ccccc21`, the “% Inhibition” value was -6% and the Z score is recorded as 0.9.

Take `Cc1cccc(-n2cnc3cc(C(=O)N4CCOC[C@H]4C(=O)O)ccc32)c1`: the “% Inhibition” value stood at 2% and the Z score is -0.41.

`CCN(C)C[C@@H]1CN(C(=O)C(=O)CCc2ccccc2)C[C@@H]1CO`: the “% Inhibition” value stood at 10% and the Z score was -1.34.

Regarding `C[C@H](Oc1cnc2ccccc2c1)C(=O)Nc1c[nH]c(C(N)=O)c1`, the “% Inhibition” value is -5% and the Z score came out at 0.52.

Take `Cc1nc(C(=O)NC(c2ccccc2)c2ccccc2)co1`: the “% Inhibition” value was -15% and the Z score is given as 2.65.

With `CC1CCC(N2CC(C(=O)NCC3CCCOC3C(C)(C)C)CC2=O)CC1` (centres undefined), the “% Inhibition” value was -4% and the Z score amounted to 0.58.

Regarding `CC(C)(C)OC(=O)C1(C(=O)N[C@H]2CC[C@@H](CO)CC2)CCC1`, the “% Inhibition” value was -7% and the Z score is given as 1.38.

For `C=CCC1(CC=C)CCCCN1C(=O)C[C@H]1C(=O)N(C)C(=O)N1C`, the “% Inhibition” value is on record as -13% and the Z score amounted to 1.65.

As for `N[C@H](c1ccc(F)c(Cl)c1)C(F)(F)F`, the “% Inhibition” value worked out at 7% and the Z score was -0.93.

As to `Cc1csc(CCC(=O)N2CC(C)[S+]([O-])C(C)C2)n1` (centres undefined), the “% Inhibition” value is -1% and the Z score was 0.23.

On to `Cc1cc(C)cc(N2CCC(NCc3n[nH]c(N)n3)CC2)c1`, for which the “% Inhibition” value was determined as 5% and the Z score is listed as -0.68.

Turning to `COc1cc(C#N)c(Br)c(Br)c1OC`, the “% Inhibition” value is 0% and the Z score is reported as -0.03.

In the case of `COc1nc(CNC(=O)[C@H](C)n2cccn2)nc(N2CCOCC2)n1`, the “% Inhibition” value is -17% and the Z score is 2.13.

`CC(=O)NCCCNC(=O)NCC1(C)CCCCCC1`: the “% Inhibition” value is given as -13% and the Z score amounted to 1.29.

Regarding `Cn1ccnc1C(=O)NCc1ccc(-c2ncon2)cc1`, the “% Inhibition” value is given as -2% and the Z score was found to be 0.32.

As to `CCC(=O)Nc1ccc(-n2cnc(C(=O)NCc3ccco3)c2)nc1`, the “% Inhibition” value is 39% and the Z score is -5.59.

Turning to `CCN(CC(=O)Nc1ccc(NC(C)=O)cc1)S(=O)(=O)N(C)Cc1c(F)cccc1Cl`, the “% Inhibition” value was -2% and the Z score is listed as 0.27.
